Source: article PMC7320043
These are yes or no findings as the source states them, for the method shown. Some binding calls cover weakened binding; strength is not graded here. Tags and fused reporters may be left off the sequences shown.

Target: Fbxl17 two-hybrid bait, FBD and LRRs (321-701aa) (human) (UniProt Q9UF56)
Test: two-hybrid; Matchmaker Gold system (Clontech); bait Fbxl17 aa 321 to 701 in pGBKT7; screen of a normalized universal human cDNA library (Mate & Plate) with prey fused to the Gal4 activation domain

| binding | Binder |
| --- | --- |
| binds | Component of oligomeric golgi complex 2, two-hybrid prey (domain or fragment, UniProt Q14746 457-534) FVNELSLRPISNESPKEIKKPLVTGSKEPSITQGNTEDQGSGPSETKPVVSISRTQLVYVVADLDKLQEQLPELLEII |
| binds | PHD finger protein 7, two-hybrid prey (domain or fragment, UniProt Q9BWX1 50-236) LQKDNISVHYFCLILSSKLPQRGQSNRGFHGFLPEDIKKEAARASRKICFVCKKKGAAINCQKDQCLRNFHLPCGQERGCLSQFFGEYKSFCDKHRPTQNIQHGHVGEESCILCCEDLSQQSVENIQSPCCSQAIYHRKCIQKYAHTSAKHFFKCPQCNNRKEFPQEMLRMGIHIPDRDAAWELEPG |
| binds | Acyl-CoA synthetase bubblegum family member 2, two-hybrid prey (domain or fragment, UniProt Q5FVE4 528-666) PVETLVKKKIPIISNAMLVGDKLKFLSMLLTLKCEMNQMSGEPLDKLNFEAINFCRGLGSQASTVTEIVKQQDPLVYKAIQQGINAVNQEAMNNAQRIEKWVILEKDFSIYGGELGPMMKLKRHFVAQKYKKQIDHMYH |
| binds | Serine carboxypeptidase 1, two-hybrid prey (domain or fragment, UniProt Q9HB40 273-452) LTKSTPTSTMESSLEFTQSHLVCLCQRHVRHLQRDALSQLMNGPIRKKLKIIPEDQSWGGQATNVFVNMEEDFMKPVISIVDELLEAGINVTVYNGQLDLIVDTMGQEAWVRKLKWPELPKFSQLKWKALYSDPKSLETSAFVKSYKNLAFYWILKAGHMVPSDQGDMALKMMRLVTQQE |
| binds | Family with sequence similarity 190, member A, two-hybrid prey (domain or fragment, UniProt Q9C0I3 555-726) MEPMIEMKKREEPEFPEPSKQNLSLKLTKDVDQEARCSHISRMPNSPSADWPLQGVEENGGIDSLPFRLMLQDCTAVKTLLLKMKRVLQESADMSPASSTTSLPVSPLTEEPVPFKDIMKDECSMLKLQLKEKDELISQLQEELGKVRHLQKAFASRVDKSTQTELLCYDGL |
| binds | Taspase, threonine aspartase, 1, two-hybrid prey (domain or fragment, UniProt Q9H6P5 135-318) GIKNPVSVANRLLCEGQKGKLSAGRIPPCFLVGEGAYRWAVDHGIPSCPPNIMTTRFSLAAFKRNKRKLELAERVDTDFMQLKKRRQSSEKENDSGTLDTVGAVVVDHEGNVAAAVSSGGLALKHPGRVGQAALYGCGCWAENTGAHNPYSTAVSTSGCGEHLVRTILARECSHALQAEDAHQA |
| binds | Transmembrane protein 126A, two-hybrid prey (domain or fragment, UniProt Q9H061 89-195) FPLNTGDLDCETCTITRSGLTGLVIGGLYPVFLAIPVNGGLAARYQSALLPHKGNILSYWIRTSKPVFRKMLFPILLQTMFSAYLGSEQYKLLIKALQLSEPGKEIH |
| binds | Acid phosphatase-like 2, two-hybrid prey (domain or fragment, UniProt Q8TE99 266-464) LKNSQLEKTYGEMAKIVDVPTKQLRAANPIDSMLCHFCHNVSFPCTRNGCVDMEHFKVIKTHQIEDERERREKKLYFGYSLLGAHPILNQTIGRMQRATEGRKEELFALYSAHDVTLSPVLSALGLSEARFPRFAARLIFELWQDREKPSEHSVRILYNGVDVTFHTSFCQDHHKRSPKPMCPLENLVRFVKRDMFVAL |
| binds | Intraflagellar transport 46 homolog (Chlamydomonas), two-hybrid prey (domain or fragment, UniProt Q9NQC8 1-216) MADNSSDECEEENNKEKKKTSQLTPQRGFSENEDDDDDDDDSSETDSDSDDDDEEHGAPLEGAYDPADYEHLPVSAEIKELFQYISRYTPQLIDLDHKLKPFIPDFIPAVGDIDAFLKVPRPDGKPDNLGLLVLDEPSTKQSDPTVLSLWLTENSKQHNITQHMKVKSLEDAEKNPKAIDTWIESISELHRSKPPATVHYTRPMPDIDTLMQEWSP |
| binds | Indoleamine 2,3-dioxygenase 1, two-hybrid prey (domain or fragment, UniProt P14902 14-128) EYHIDEEVGFALPNPQENLPDFYNDWMFIAKHLPDLIESGQLRERVEKLNMLSIDHLTDHKSQRLARLVLGCITMAYVWGKGHGDVRKVLPRNIAVPYCQLSKKLELPPILVYAD |
| binds | Electron-transfer-flavoprotein, alpha polypeptide, two-hybrid prey (domain or fragment, UniProt P13804 103-284) FNYTHICAGASAFGKNLLPRVAAKLEVAPISDIIAIKSPDTFVRTIYAGNALCTVKCDEKVKVFSVRGTSFDAAATSGGSASSEKASSTSPVEISEWLDQKLTKSDRPELTGAKVVVSGGRGLKSGENFKLLYDLADQLHAAVGASRAAVDAGFVPNDMQVGQTGKIVAPELYIAVGISGAI |
| binds | Transforming growth factor, beta-induced, 68 kDa, two-hybrid prey (domain or fragment, UniProt Q15582 115-326) STTTQLYTDRTEKLRPEMEGPGSFTIFAPSNEAWASLPAEVLDSLVSNVNIELLNALRYHMVGRRVLTDELKHGMTLTSMYQNSNIQIHHYPNGIVTVNCARLLKADHHATNGVVHLIDKVISTITNNIQQIIEIEDTFETLRAAVAASGLNTMLEGNGQYTLLAPTNEAFEKIPSETLNRILGDPEALRDLLNNHILKSAMCAEAIVAGLS |
| binds | EURL/Chromosome 21 open reading frame 91, two-hybrid prey (domain or fragment, UniProt Q9NYK6 1-178) MNEEEQFVNIDLNDDNICSVCKLGTDKETLSFCHICFELNIEGVPKSDLLHTKSLRGHKDCFEKYHLIANQGCPRSKLSKSTYEEVKTILSKKINWIVQYAQNKDLDSDSECSKNPQHHLFNFRHKPEEKLLPQFDSQVPKYSAKWIDGSAGGISNCTQRILEQRENTDFGLSMLQDS |
| binds | S1 RNA binding domain 1, two-hybrid prey (domain or fragment, UniProt Q8N5C6 260-491) SLREVQQTLEELRAVAKKVHSTIQKIKKEGKMSECLLKAMLNCKTFEELEHVSAPYKTGSKGTKAQRARQLGLEGAARALLEKPGELSLLSYIRPDVKGLSTLQDIEIGVQHILADMIAKDKDTLDFIRNLCQKRHVCIQSSLAKVSSKKVNEKDVDKFLLYQHFSCNIRNIHHHQILAINRGENLKVLTVKVNISDGVKDEFCRWCIQNRWRPRSFARPELMKILYNSLND |
| binds | Adenylate kinase domain containing 1, two-hybrid prey (domain or fragment, UniProt Q5TCS8 415-624) YKGKVVDYAQLVQPRFDKARETLVENTIAEATAAAIKVVKEKLLRELQARKQAETALREFQRQYEKMEFGVFPMEATHSSIDEEGYIQGSQRDRGSSLVDTEEAKTKSENVLHDQAAKVDKDDGKETGETFTFKRHSQDASQDVKLYSDTAPTEDLIEEVTADHPEVVTMIEETIKMSQDINFEQPYEKHAEILQEVLGEVMEENKDRFP |
| binds | Zinc finger, MYM-type 2, two-hybrid prey (domain or fragment, UniProt Q9UBW7 141-390) RRPPETKNRTNDVDFSTSSFSRSKVNAGMGNSGITTEPDSEIQIANVTTLETGVSSVNDGQLENTDGRDMNLMITHVTSLQNTNLGDVSNGLQSSNFGVNIQTYTPSLTSQTKTGVGPFNPGRMNVAGDVFQNGESATHHNPDSWISQSASFPRNQKQPGVDSLSPVASLPKQIFQPSVQQQPTKPVKVTCANCKKPLQKGQTAYQRKGSAHLFCSTTCLSSFSHKPAPKKLCVMCKKDITTMKGTIVAQ |
| binds | KPIRNLNGHSIGQYRIHAGK (domain or fragment, UniProt P50579 323-342) [Methionyl aminopeptidase 2, two-hybrid prey] |
| binds | Kelch-like 12 (Drosophila), two-hybrid prey (domain or fragment, UniProt Q53G59 1-162) MGGIMAPKDIMTNTHAKSILNSMNSLRKSNTLCDVTLRVEQKDFPAHRIVLAACSDYFCAMFTSELSEKGKPYVDIQGLTASTMEILLDFVYTETVHVTVENVQELLPAACLLQLKGVKQACCEFLESQLDPSNCLGIRDFAETHNCVDLMQAAEVFSQKHF |
| binds | Secretogranin V (7B2 protein), two-hybrid prey (domain or fragment, UniProt P05408 1-188) MVSRMVSTMLSGLLFWLASGWTPAFAYSPRTPDRVSEADIQRLLHGVMEQLGIARPRVEYPAHQAMNLVGPQSIEGGAHEGLQHLGPFGNIPNIVAELTGDNIPKDFSEDQGYPDPPNPCPVGKTADDGCLENTPDTAEFSREFQLHQHLFDPEHDYPGLGKWNKKLLYEKMKGGERRKRRSVNPYLQ |
| binds | Tropomodulin 1, two-hybrid prey (domain or fragment, UniProt P28289 66-334) ELLDHLEKQAKEFKDREDLVPYTGEKRGKVWVPKQKPLDPVLESVTLEPELEEALANASDAELCDIAAILGMHTLMSNQQYYQALSSSSIMNKEGLNSVIKPTQYKPVPDEEPNSTDVEETLERIKNNDPKLEEVNLNNIRNIPIPTLKAYAEALKENSYVKKFSIVGTRSNDPVAYALAEMLKENKVLKTLNVESNFISGAGILRLVEALPYNTSLVEMKIDNQSQPLGNKVEMEIVSMLEKNATLLKFGYHFTQQGPRLRASNAMMN |
| binds | Proteasome (prosome, macropain) activator subunit 4, two-hybrid prey (domain or fragment, UniProt Q14997 367-420) RLHRERYKKPSWLTPVPDSHKLTDQDVTDFVQCIIQPVLLAMFSKTGSLEAAQA |
| binds | Rearranged L-myc fusion, two-hybrid prey (domain or fragment, UniProt Q13129 1670-1914) GTLKCNHSSKTTSLEQCNIVQPPPPCKIENSIPNPNGTESGTYFTSFQLPLPRIKESETRQHSSGQENTVKNPTHVPKENFRKHSQPRSFDLKTYKPMGFESSFLKFIQESEEKEDDFDDWEPSEHLTLSNSSQSSNDLTGNVVANNMVNDSEPEVDIPHSSSDSTIHENLTAIPPLIVAETTTVPSLENLRVVLDKALTDCGELALKQLHYLRPVVVLERSKFSTPILDLFPTKKTDELCVGSS |
| binds | Coiled-coil domain containing 147, two-hybrid prey (domain or fragment, UniProt Q5T655 478-684) AESEIKLKQQQNLYEAVRSDRNLYSKNLVEAQDEITDMKRKLKIMIHQVDELKEDISAKESALVKLHLEQQRIEKEKETLKAELQKLRQQALETKHFIEKQEAEERKLLRIIAEADGERLRQKKELDQVISERDILGSQLVRRNDELALLYEKIKIQQSVLNKGESQYNQRLEDMRILRLEIKKLRREKGILARSMANVEELRQEFF |
| binds | Kelch-like 7 (Drosophila), two-hybrid prey (domain or fragment, UniProt Q8IXQ5 37-240) MRKQKTLCDVILMVQERKIPAHRVVLAAASHFFNLMFTTNMLESKSFEVELKDAEPDIIEQLVEFAYTARISVNSNNVQSLLDAANQYQIEPVKKMCVDFLKEQVDASNCLGISVLAECLDCPELKATADDFIHQHFTEVYKTDEFLQLDVKRVTHLLNQDTLTVRAEDQVYDAAVRWLKYDEPNRQPFMVDILAKVRFPLISK |
| binds | Propionyl CoA carboxylase, beta polypeptide, two-hybrid prey (domain or fragment, UniProt P05166 172-468) SLAGYADIFLRNVTASGVIPQISLIMGPCAGGAVYSPALTDFTFMVKDTSYLFITGPDVVKSVTNEDVTQEELGGAKTHTTMSGVAHRAFENDVDALCNLRDFFNYLPLSSQDPAPVRECHDPSDRLVPELDTIVPLESTKAYNMVDIIHSVVDEREFFEIMPNYAKNIIVGFARMNGRTVGIVGNQPKVASGCLDINSSVKGARFVRFCDAFNIPLITFVDVPGFLPGTAQEYGGIIRHGAKLLYAFAEATVPKVTVITRKAYGGAYDVMSSKHLCGDTNYAWPTAEIAVMGAKGA |
| binds | Filamin A interacting protein 1-like, two-hybrid prey (domain or fragment, UniProt Q4L180 508-705) SEKLKKTEDKLQAASSQLQVEQNKVTTVTEKLIEETKRALKSKTDVEEKMYSVTKERDDLKNKLKAEEEKGNDLLSRVNMLKNRLQSLEAIEKDFLKNKLNQDSGKSTTALHQENNKIKELSQEVERLKLKLKDMKAIEDDLMKTEDEYETLERRYANERDKAQFLSKELEHVKMELAKYKLAEKTETSHEQWLFKRL |
